# In article PMC4336329 (PLoS ONE, 2015):
# Screen size: about 310,000 compounds; about 14,000 (4.5%) showed an effect of 50% or more. The effect is printed as a negative number. The list shows a part of the results.
# Target: human ether-à-go-go-related gene (hERG) potassium channel (human, UniProt Q12809)
# Experiment: primary screen, population patch clamp on CHO cells stably expressing hERG
# 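Further: peak tail current of the secondary pulse compared with the same well before compound.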
# Chain of human ether-à-go-go-related gene (hERG) potassium channel (Q12809 whole entry, looked up): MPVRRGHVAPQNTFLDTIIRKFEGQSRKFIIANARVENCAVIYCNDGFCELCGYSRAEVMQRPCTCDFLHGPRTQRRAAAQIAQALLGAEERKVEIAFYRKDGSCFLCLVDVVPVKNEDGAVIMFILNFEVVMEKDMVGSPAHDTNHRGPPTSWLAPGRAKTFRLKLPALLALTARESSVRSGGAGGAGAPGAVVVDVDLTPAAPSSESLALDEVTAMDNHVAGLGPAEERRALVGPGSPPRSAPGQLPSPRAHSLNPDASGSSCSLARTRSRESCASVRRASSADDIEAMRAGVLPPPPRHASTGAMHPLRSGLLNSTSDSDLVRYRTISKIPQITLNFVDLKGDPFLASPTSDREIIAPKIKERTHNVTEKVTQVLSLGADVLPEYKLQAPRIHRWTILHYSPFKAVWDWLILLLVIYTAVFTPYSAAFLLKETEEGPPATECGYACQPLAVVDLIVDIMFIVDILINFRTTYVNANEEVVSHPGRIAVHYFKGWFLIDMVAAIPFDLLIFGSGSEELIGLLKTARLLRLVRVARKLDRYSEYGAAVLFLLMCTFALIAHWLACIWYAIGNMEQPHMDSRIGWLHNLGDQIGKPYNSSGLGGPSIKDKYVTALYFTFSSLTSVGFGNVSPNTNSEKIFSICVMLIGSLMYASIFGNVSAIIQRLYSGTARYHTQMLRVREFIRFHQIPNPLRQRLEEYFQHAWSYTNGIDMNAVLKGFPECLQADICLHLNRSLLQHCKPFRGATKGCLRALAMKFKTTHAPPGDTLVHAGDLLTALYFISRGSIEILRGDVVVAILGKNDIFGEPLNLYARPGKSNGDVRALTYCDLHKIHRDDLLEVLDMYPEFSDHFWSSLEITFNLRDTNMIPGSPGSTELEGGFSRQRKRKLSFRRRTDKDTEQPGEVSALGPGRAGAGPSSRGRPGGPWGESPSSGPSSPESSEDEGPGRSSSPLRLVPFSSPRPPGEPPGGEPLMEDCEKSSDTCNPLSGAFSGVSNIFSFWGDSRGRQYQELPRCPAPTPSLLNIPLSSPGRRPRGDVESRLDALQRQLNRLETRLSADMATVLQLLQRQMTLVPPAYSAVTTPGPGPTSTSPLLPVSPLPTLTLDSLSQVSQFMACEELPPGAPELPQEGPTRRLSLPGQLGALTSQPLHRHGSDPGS
row,SMILES,"hERG current change (%, negative = inhibition) at 10uM [%]"
1,CC(C)COc1cccc(C(=O)Nc2ccc(CN3CCOCC3)cc2)c1,-30.1
2,O=C(O)c1ccc(N=NN2CCCC2)cc1,33.6
3,O=C(N/N=C/c1ccc(Cl)cc1)c1n[nH]c2c1CCCC2,5.74
4,COc1ccc(-c2noc(CN3CCC(Cc4ccccc4)CC3)n2)cc1,-8.3
5,CC(=O)c1cc(-c2ccccc2)n(CC(=O)Nc2cccc(C)c2)c1C,10.9
6,COc1ccc(S(=O)(=O)N2CCCC2CNC(=O)C(=O)NCCc2ccccc2)cc1 (stereo not drawn),-22
7,COc1ccc(NC(=O)C(CC(C)C)NS(=O)(=O)c2ccc3c(c2)CCN3C(C)=O)cc1OC (stereo not drawn),9.69
8,O=C(Nc1ccccc1Oc1ccccc1)c1ccc(Br)o1,-2.85
9,COc1cccc(OC)c1OCCCCN1CCCCC1.O=C(O)C(=O)O,-2.55
10,CCC(C)NS(=O)(=O)c1ccc(NC(=O)CCC2CCCCC2)cc1 (stereo not drawn),13.4
11,C[C@H](NC(=O)[C@@H]1Cc2ccccc2CN1)C(=O)NC1CCCC1,14
12,O=C(NCCO)c1cc2ccccc2c(=O)s1,6.96
13,COC(=O)c1ccc(S(=O)(=O)N2CCCN(Cc3ccc(F)cc3)CC2)n1C,-14.1
14,Clc1cccc(Nc2nc(-c3ccncc3)nc3ccccc23)c1,-27.7
15,COc1ccc2nc3sc(C(=O)NCc4cccs4)c(N)c3cc2c1,2.97
16,CCOc1ccccc1OCCCOc1ccc(C)cc1Cl,0.906
17,CCc1ccc(OCC(=O)N/N=C(\C)c2ccc3c(c2)OCCO3)cc1,-21.5
18,Cc1ccc(/C=N/NC(=O)NC2CCCCC2)o1,-2.7
19,Cc1ccc(-c2cc(C(=O)Nc3nn[nH]n3)c3ccccc3n2)cc1,9.28
20,Cc1ccc2oc(C(=O)N(Cc3ccc(N(C)C)cc3)CC3CCCO3)c(C)c2c1 (stereo not drawn),-14.8
21,Cc1nonc1CN(C)C(=O)CC1C(=O)NCCN1Cc1c(F)cccc1Cl (stereo not drawn),1.94
22,C=CCNC(=O)c1cc2c(=O)n3cc(C)ccc3nc2nc1NCC1CCCO1 (stereo not drawn),-73

row,SMILES,"hERG current change (%, negative = inhibition) at 10uM [%]"
1,CCCN(CCC)CCCNC(=O)c1cc2c(=O)n(C)c3ccccc3c2n1C,-5.11
2,NC(=O)c1sc2nc3c(c(-c4ccco4)c2c1N)CCC3,-11.7
3,CCc1ccc(C(=O)Nc2cc(C)ccc2F)s1,24
4,CC(=O)N1CCSc2ccc(S(=O)(=O)Nc3cccc(C)c3)cc21,-3.2
5,CC(C(=O)O)n1c2ccccc2c2cn[nH]c(=O)c21 (stereo not drawn),15.8
6,Cc1ccc(C)c(S(=O)(=O)N2CCCCC2CCNC(=O)C(=O)NCc2cccnc2)c1 (stereo not drawn),-37.1
7,CCC(C)c1ccc(S(=O)(=O)Nc2cccnc2)cc1.Cl (stereo not drawn),11.9
8,COc1cc2ccccc2cc1C(=O)NCc1ccncc1,-23.9
9,CC(=O)NC(c1ccccc1)c1cc([N+](=O)[O-])c2cccnc2c1O (stereo not drawn),8.39
10,O=C(NCc1ccccc1)C1CCCN(c2ncnc3c2nc2n3CCCCC2)C1 (stereo not drawn),-69.1
11,CC(C)NC(=O)CSc1nc2ccccc2n1CC(=O)N1CCc2ccccc21,-8
12,CCn1c(COc2ccc3c(c2)OCO3)nnc1SCC(=O)c1ccc(Cl)cc1,4.61
13,NNC(=O)c1sccc1OCc1ccc(Cl)cc1,2.41
14,COc1ccc(S(=O)(=O)NCc2ccccn2)c(Cl)c1Cl,-13.2
15,COc1ccccc1N1CCN(C(=O)c2cc(-c3ccc(F)cc3)on2)CC1,19.1
16,Clc1ccc(C(c2ccccc2)N2CCNCC2)cc1 (stereo not drawn),-22.7
17,CN1CCN(c2ccccc2NC(=O)c2ccc(-c3ccc(Br)cc3)o2)CC1,-30.5
18,O=C(CNS(=O)(=O)c1ccc(Br)cc1Cl)OCC(=O)c1ccc[nH]1,-14
19,COc1ccc(Nc2nc(C(C)(C)C)nc3c2nnn3Cc2ccccc2Cl)cc1OC,14
20,COC(=O)c1[nH]c2cc(OC)c(OC)cc2c1NC(=O)CN1C[C@H]2C[C@@H](C1)c1cccc(=O)n1C2,9.57
21,Cc1ccc(OCCC(=O)OCC(=O)Nc2ccc3[nH]c(=O)[nH]c3c2)cc1,-20.3
22,Cc1cc(C)cc(NC(=O)N(CCC#N)Cc2cccs2)c1,6.56

row,SMILES,"hERG current change (%, negative = inhibition) at 10uM [%]"
1,Cc1cccc(NC(=O)c2cc(Cl)sc2Cl)c1C,14.3
2,O=C(O)c1ccc(N/N=C/c2ccc(OC(=O)c3cccc(Cl)c3)cc2)cc1,-9.22
3,O=C(Nc1ccc(-c2nc3cc(NC(=O)c4cccs4)ccc3o2)cc1)c1cccs1,31.2
4,NS(=O)(=O)OCC(Cc1ccccc1)N1C(=O)c2ccccc2C1=O (stereo not drawn),-11.4
5,O=C(N/N=C(\Cc1ncc[nH]1)c1ccccc1)c1cccnc1,7.78
6,O=C(/C=C/c1ccccc1[N+](=O)[O-])N1CCN(c2ccccc2F)CC1,-13.8
7,O=C1CC(=O)N(CCc2ccc(F)cc2)C(=O)N1,9.33
8,CCOC(=O)c1ccc2c(c1)nc(SC/C(O)=C(\C#N)c1nc3ccccc3[nH]1)n2CC,21
9,CC(=O)Nc1ccc(S(=O)(=O)NCCc2ccc(S(N)(=O)=O)cc2)cc1,18.1
10,CCOC(=O)c1ccc(N2C(=O)C(CC(=O)NC)N(CCc3ccc(OC)c(OC)c3)C2=S)cc1 (stereo not drawn),-0.0322
11,O=C(CSc1nnc(-c2ccncc2)n1Cc1ccccc1)NC1CCCCC1,-18.7
12,CC(C)CC(NS(=O)(=O)c1ccc2[nH]c(=O)c(=O)[nH]c2c1)C(=O)O (stereo not drawn),16.5
13,Cc1ccc(C(=O)N/C(=C/c2cn(-c3ccccc3)nc2-c2ccccc2)C(=O)O)cc1,18.1
14,COc1ccc2c(c1)OC[C@H]1[C@H]2N2C(=O)c3cc(Br)ccc3NC(=O)[C@@]2(C)[C@H]1c1ccccc1,-6.04
15,COc1ccc(CCC(=O)N2C[C@H]3C[C@@H](C2)c2cccc(=O)n2C3)cc1,-9.05
16,CCC/C(C)=N/NC(=O)c1ccccc1O,-7.28
17,Cc1ccc(NC(=O)COC(=O)c2ccc(F)cc2Cl)c(Br)c1,14.1
18,COc1cccc(CNc2ccc(F)c([N+](=O)[O-])c2)c1O,-22.5
19,CCOC(=O)c1ccccc1-c1cn2cc(Cl)ccc2n1,-24.1
20,CCOC(=O)C1=C(C)OC(N)=C(C#N)C1c1cc(OC)c2c(c1)OCO2 (stereo not drawn),-20.6
21,COc1cccc(C(=O)NCc2ccc3[nH]c(C)cc3c2)c1,18.7
22,CCOC(=O)c1sc(NC(=O)CSc2nnnn2-c2ccc(C)c(C)c2)nc1C,1.7

row,SMILES,"hERG current change (%, negative = inhibition) at 10uM [%]"
1,COc1cccc(NC(=O)Cn2cnc3sc(C)c(S(=O)(=O)N4CCN(C)CC4)c3c2=O)c1,9.98
2,Nc1nonc1-n1nnc(C(=O)N/N=C/c2ccc(Cl)cc2Cl)c1CN1CCOCC1,17.4
3,O=C(NNC(=O)c1cccc(-n2cccc2)c1)c1ccccc1,-1.74
4,O=c1[nH]c2ccccc2n1CCCN1CCC(n2c(=O)[nH]c3cc(Cl)ccc32)CC1,-65.5
5,Cc1cccc2[nH]c(CN(C)C(=O)C3CCC(=O)N(CCc4ccccc4)C3)nc12 (stereo not drawn),-13.7
6,CC(=O)c1ccc(NC(=O)Cn2nc(C)cc2C)cc1,5.09
7,C=CCn1c(SCC(=O)Nc2ccc(F)cc2)nc2ccccc2c1=O,-3.18
8,Cc1cc(=O)n(C)c(=O)n1CCCCOc1ccc([N+](=O)[O-])cc1,-68.9
9,COc1cc(C(=O)Nc2cccnc2)cc(OC)c1OC,16.3
10,Cc1ccn2c(=O)c(NC(=O)COc3ccccc3)c(C)nc2c1,-56.9
11,CCOc1c(Br)cc(C2CC(=O)Nc3cc(OC)c(OC)cc32)cc1OC (stereo not drawn),8.25
12,C=CCNC(=O)/C(=C/c1cccc([N+](=O)[O-])c1)NC(=O)c1ccco1,-27.5
13,CN(Cc1ccco1)C(=O)c1ccc(S(=O)(=O)N2CCCCCC2)cc1,-32.5
14,COC(=O)C1=C(C)NC(C)=C(C(=O)OC)C1C(=O)OCC(=O)Nc1ccc(C(C)=O)cc1,13.6
15,COc1cccc(-c2cc(C(=O)N3N=C(C)CC3(O)C(F)F)c3ccccc3n2)c1 (stereo not drawn),0.295
16,CCCS(=O)(=O)N1CCN(C(=O)COc2ccc(-c3ccccc3)cc2)CC1,-27.1
17,O=C(/C(Cl)=C/Nc1ccc(Br)cn1)C(F)(F)F,12.7
18,O=C1c2ccccc2S(=O)(=O)c2cc(C(=O)N3CCC(O)CC3)ccc21,6.7
19,Cc1cc(C(=O)CN2CCCC2)c(C)n1-c1ccc(F)cc1,1.77
20,Cc1ccc(C23OCCN2CCn2nc4ccccc4c23)cc1 (stereo not drawn),-12.1
21,COc1ccc(NS(=O)(=O)c2ccc(Br)cc2)cn1,-0.528
